The list shows a part of the results.
Tests used:
Assay in all cases: glycan array binding signal (z-score within array); higher = stronger binding
Conditions in all cases: glycan notation: IUPAC condensed, linker removed
[1] = molecular target: Neu5Ac(a2-3)Gal(b1-3)GlcNAc6S
How it was run: (§1)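 Glycan array binding is given as a within-array Z-score, which can be read as non-binding when negative. The arrays, 3228 of them, came from the Consortium for Functional Glycomics database and were retained only where the protein sequence was available. Z-scores were averaged across arrays of the same protein sequence at different concentrations or buffers and across linkers.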

[2] = molecular target: Neu5Ac(a2-3)Gal(b1-3)[Fuc(a1-4)]GlcNAc
How it was run: as §1

[3] = molecular target: Neu5Ac(a2-3)Gal(b1-3)[Fuc(a1-4)]GlcNAc(b1-3)Gal(b1-3)[Fuc(a1-4)]GlcNAc
How it was run: as §1

[4] = molecular target: Neu5Ac(a2-3)Gal(b1-3)[Fuc(a1-4)]GlcNAc(b1-3)Gal(b1-4)[Fuc(a1-3)]GlcNAc
How it was run: as §1

[5] = molecular target: Neu5Ac(a2-3)Gal(b1-3)[Neu5Ac(a2-3)Gal(b1-4)]GlcNAc
How it was run: as §1

[6] = molecular target: Neu5Ac(a2-3)Gal(b1-3)[Neu5Ac(a2-6)]GalNAc
How it was run: as §1

[7] = molecular target: Neu5Ac(a2-3)Gal(b1-3)[Neu5Ac(a2-6)]GlcNAc(b1-3)[Fuc(a1-3)[Gal(b1-4)]GlcNAc(b1-6)]Gal(b1-4)Glc
How it was run: as §1

[8] = molecular target: Neu5Ac(a2-3)Gal(b1-4)Glc
How it was run: as §1

[9] = molecular target: Neu5Ac(a2-3)Gal(b1-4)GlcNAc
How it was run: as §1

[10] = molecular target: Neu5Ac(a2-3)Gal(b1-4)GlcNAc(b1-2)Man
How it was run: as §1

[11] = molecular target: Neu5Ac(a2-3)Gal(b1-4)GlcNAc(b1-2)Man(a1-3)[GlcNAc(b1-2)Man(b1-4)GlcNAc(b1-2)Man(a1-6)]Man(b1-4)GlcNAc(b1-4)GlcNAc
How it was run: as §1

[12] = molecular target: Neu5Ac(a2-3)Gal(b1-4)GlcNAc(b1-2)Man(a1-3)[Neu5Ac(a2-3)Gal(b1-4)GlcNAc(b1-2)Man(a1-6)]Man(b1-4)GlcNAc(b1-4)[Fuc(a1-6)]GlcNAc
How it was run: as §1

[13] = molecular target: Neu5Ac(a2-3)Gal(b1-4)GlcNAc(b1-2)Man(a1-3)[Neu5Ac(a2-6)Gal(b1-4)GlcNAc(b1-2)Man(a1-6)]Man(b1-4)GlcNAc(b1-4)GlcNAc
How it was run: as §1

[14] = molecular target: Neu5Ac(a2-3)Gal(b1-4)GlcNAc(b1-2)[Neu5Ac(a2-3)Gal(b1-4)GlcNAc(b1-6)]Man(a1-6)[Neu5Ac(a2-3)Gal(b1-4)GlcNAc(b1-2)Man(a1-3)]Man(b1-4)GlcNAc(b1-4)GlcNAc
How it was run: as §1

[15] = molecular target: Neu5Ac(a2-3)Gal(b1-4)GlcNAc(b1-3)Gal
How it was run: as §1

[16] = molecular target: Neu5Ac(a2-3)Gal(b1-4)GlcNAc(b1-3)Gal(b1-3)GlcNAc
How it was run: as §1

[17] = molecular target: Neu5Ac(a2-3)Gal(b1-4)GlcNAc(b1-3)Gal(b1-4)GlcNAc
How it was run: as §1

[18] = molecular target: Neu5Ac(a2-3)Gal(b1-4)GlcNAc(b1-3)Gal(b1-4)GlcNAc(b1-3)Gal(b1-4)GlcNAc
How it was run: as §1

[19] = molecular target: Neu5Ac(a2-3)Gal(b1-4)GlcNAc(b1-3)Gal(b1-4)[Fuc(a1-3)]GlcNAc
How it was run: as §1

[20] = molecular target: Neu5Ac(a2-3)Gal(b1-4)GlcNAc(b1-3)GalNAc
How it was run: as §1

[21] = molecular target: Neu5Ac(a2-3)Gal(b1-4)GlcNAc(b1-3)[Neu5Ac(a2-3)Gal(b1-4)GlcNAc(b1-6)]GalNAc
How it was run: as §1

[22] = molecular target: Neu5Ac(a2-3)Gal(b1-4)GlcNAc(b1-6)GalNAc
How it was run: as §1

[23] = molecular target: Neu5Ac(a2-3)Gal(b1-4)GlcNAc(b1-6)[Gal(b1-3)]GalNAc
How it was run: as §1

[24] = molecular target: Neu5Ac(a2-3)Gal(b1-4)GlcNAc(b1-6)[Neu5Ac(a2-3)Gal(b1-3)]GalNAc
How it was run: as §1

[25] = molecular target: Neu5Ac(a2-3)Gal(b1-4)GlcNAc6S
How it was run: as §1

[26] = molecular target: Neu5Ac(a2-3)Gal(b1-4)[Fuc(a1-3)]GlcNAc
How it was run: as §1

[27] = molecular target: Neu5Ac(a2-3)Gal(b1-4)[Fuc(a1-3)]GlcNAc(b1-3)Gal
How it was run: as §1

[28] = molecular target: Neu5Ac(a2-3)Gal(b1-4)[Fuc(a1-3)]GlcNAc(b1-3)Gal(b1-4)GlcNAc
How it was run: as §1

[29] = molecular target: Neu5Ac(a2-3)Gal(b1-4)[Fuc(a1-3)]GlcNAc(b1-3)Gal(b1-4)[Fuc(a1-3)]GlcNAc(b1-3)Gal(b1-4)[Fuc(a1-3)]GlcNAc
How it was run: as §1

[30] = molecular target: Neu5Ac(a2-3)Gal(b1-4)[Fuc(a1-3)]GlcNAc(b1-3)GalNAc
How it was run: as §1

B1: StcE (Escherichia coli), O82882.2 (protein)
chain: ADNNSAIYFNTSQPINDLQGSLAAEVKFAQSQILPAHPKEGDSQPHLTSLRKSLLLVRPVKADDKTPVQVEARDDNNKILGTLTLYPPSSLPDTIYHLDGVPEGGIDFTPHNGTKKIINTVAEVNKLSDASGSSIHSHLTNNALVEIHTANGRWVRDIYLPQGPDLEGKMVRFVSSAGYSSTVFYGDRKVTLSVGNTLLFKYVNGQWFRSGELENNRITYAQHIWSAELPAHWIVPGLNLVIKQGNLSGRLNDIKIGAPGELLLHTIDIGMLTTPRDRFDFAKDKEAHREYFQTIPVSRMIVNNYAPLHLKEVMLPTGELLTDMDPGNGGWHSGTMRQRIGKELVSHGIDNANYGLNSTAGLGENSHPYVVAQLAAHNSRGNYANGIQVHGGSGGGGIVTLDSTLGNEFSHEVGHNYGLGHYVDGFKGSVHRSAENNNSTWGWDGDKKRFIPNFYPSQTNEKSCLNNQCQEPFDGHKFGFDAMAGGSPFSAANRFTMYTPNSSAIIQRFFENKAVFDSRSSTGFSKWNADTQEMEPYEHTIDRAEQITASVNELSESKMAELMAEYAVVKVHMWNGNWTRNIYIPTASADNRGSILTINHEAGYNSYLFINGDEKVVSQGYKKSFVSDGQFWKERDVVDTREARKPEQFGVPVTTLVGYYDPEGTLSSYIYPAMYGAYGFTYSDDSQNLSDNDCQLQVDTKEGQLRFRLANHRANNTVMNKFHINVPTESQPTQATLVCNNKILDTKSLTPAPEGLTYTVNGQALPAKENEGCIVSVNSGKRYCLPVGQRSGYSLPDWIVGQEVYVDSGAKAKVLLSDWDNLSYNRIGEFVGNVNPADMKKVKAWNGQYLDFSKPRSMRVVYK
- glycan array binding signal (z-score) [1]: -0.167
- glycan array binding signal (z-score) [2]: -0.328
- glycan array binding signal (z-score) [3]: 4.08
- glycan array binding signal (z-score) [4]: 1.98
- glycan array binding signal (z-score) [5]: 0.35
- glycan array binding signal (z-score) [6]: 8.93
- glycan array binding signal (z-score) [7]: -0.149
- glycan array binding signal (z-score) [8]: 0.019
- glycan array binding signal (z-score) [9]: 0.008
- glycan array binding signal (z-score) [10]: 0.576
- glycan array binding signal (z-score) [11]: -0.15
- glycan array binding signal (z-score) [12]: -0.122
- glycan array binding signal (z-score) [13]: -0.151
- glycan array binding signal (z-score) [14]: -0.117
- glycan array binding signal (z-score) [15]: -0.142
- glycan array binding signal (z-score) [16]: -0.139
- glycan array binding signal (z-score) [17]: -0.133
- glycan array binding signal (z-score) [18]: -0.539
- glycan array binding signal (z-score) [19]: -0.162
- glycan array binding signal (z-score) [20]: -0.123
- glycan array binding signal (z-score) [21]: -0.176
- glycan array binding signal (z-score) [22]: -0.157
- glycan array binding signal (z-score) [23]: -0.076
- glycan array binding signal (z-score) [24]: 0.105
- glycan array binding signal (z-score) [25]: 0.33
- glycan array binding signal (z-score) [26]: -0.176
- glycan array binding signal (z-score) [27]: 0.03
- glycan array binding signal (z-score) [28]: -0.478
- glycan array binding signal (z-score) [29]: 0.21
- glycan array binding signal (z-score) [30]: 0.08

— the supplement of paper PMC8728848
